Experimental findings from patent US20180244730A1 (OXFORD UNIVERSITY INNOVATION, published 2018) are described below.

The test has as its target SnoopTag-MBP. Nature of the test: mixing, SDS-PAGE with Coomassie staining.

B1: SpyCatcher (designed binder)
chain: not shown
notes: also called pDEST14-SpyCatcher (GenBank JQ478411, Addgene plasmid ID 35044)
On to B1, for which the binding result is on record as “no binding (tested: 10 µM each)”.
